Test results: PubChem BioAssay AID1865 (National Center for Advancing Translational Sciences (NCATS), 2009)
Out of some 280,000 compounds screened, about 540 (0.19%) were called active. The inconclusive results got no clear call from the source; some entries with a clear call stand among them for comparison. Calls follow the shape of the dose curve; as a rule, active = well fitted activation curve with a large enough effect; inconclusive = small, poorly fitted or top-dose-only effect; inactive = flat fitted curve, though single readings scatter. Potencies beside an inconclusive call are fits to weak or partial responses and may not hold up.
Potency is read from the fitted curve at half-maximal effect; tags tell the direction and shape of the fitted curve.

Test: Quantitative High-Throughput Screen for Regulators of Epigenetic Control; also: nearly all actives have a fitted effect of over 60% in size; as to GFP activation: % of control where 0% means no effect
Conditions: murine LDR cells, GFP reporter derepression, 30 h; GFP activation: at 53.9 µM (top of the series)
How it was run: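 Murine LDR cells carrying a silenced, genomically integrated CMV-driven GFP reporter were exposed to compound for 30 hours at 37 C. After PBS washes, GFP-positive cells (20–120 um objects) were counted by laser-scanning microplate cytometry.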
In the case of `CN(C)S(=O)(=O)c1cccc(-c2csc(N/N=C/c3ccco3)n2)c1`, the “GFP activation” value is reported as inactive: 7.04%.
For `O=C(CC(SCc1ccco1)c1ccc(O)cc1)c1cccs1` (stereo unspecified), the “GFP activation” value was inactive: 0.273%.
In the case of `Cc1ccc(C(=O)NCC(c2cccs2)S(=O)(=O)c2cccs2)cc1` (stereo unspecified), the “GFP activation” value is reported as inactive: -3.21%.
In the case of `N=C(N)S/C=C\C(=O)O`, the Potency is reported as inconclusive: 25.1 µM [activator, single point].
In the case of `COc1ccc(OC)c(S(=O)(=O)Nc2ccc(O)c(Sc3ncn[nH]3)c2)c1`, the “GFP activation” value is reported as inactive: 0%.
In the case of `COc1cccc(/C=N/NC(=O)CSc2ccccc2C)c1O`, the “GFP activation” value is reported as inactive: -0.952%.
With `Cc1ccc(NC2=C(Cl)C(=O)OC2OC(=O)c2ccco2)cc1C` (stereo unspecified) the Potency was inconclusive: 31.6 µM [activator, single point].
With `CS(=O)(=O)Nc1ccc(C2=NN(C(=O)C3CCCCC3)C(c3cccs3)C2)cc1` (stereo unspecified) the “GFP activation” value was inactive: 0%.
With `COCCNC(=S)N/N=C(\C)c1ccccc1O` the Potency was active: 4.47 µM.
In the case of `COC(=O)CSc1nc(N)c(C#N)c(-c2ccco2)c1C#N`, the Potency is reported as inconclusive: 35.5 µM [activator, single point].
For `Nc1nc2c(s1)C(=O)CC(c1ccccc1)C2` (stereo unspecified), the “GFP activation” value was inactive: 0.781%.
In the case of `CC(=O)c1cccc(NC(=O)Cn2nc(C)n3cccc3c2=O)c1`, the Potency is reported as inconclusive: 10 µM [activator, partial curve].
With `O=C(CSC1=NCCS1)NC(c1ccccc1)c1ccccc1` the Potency was inconclusive: 35.5 µM [activator, single point].
For `COc1ccc(C2CC(c3cccs3)=NN2c2ccc(F)cc2)cc1OC` (stereo unspecified), the Potency was inconclusive: 35.5 µM [activator, single point].
In the case of `C/C(=N\NC(=O)CCCCCNC(=O)c1ccccc1)c1ccccc1O`, the “GFP activation” value is reported as inactive: 2.29%.
With `CCOc1ccccc1CN1CCC(CO)(CCOc2ccccc2)CC1` the “GFP activation” value was inactive: -3.11%.
In the case of `COc1ccc(NC(=O)c2ccc(-c3nn(C)c(=O)c4ccccc34)cc2)cc1C(N)=O`, the Potency is reported as inconclusive: 14.1 µM [activator, single point].
With `CN1CCc2c(sc3c2C(=O)NC(c2ccc(OC(=O)c4ccc(C(C)(C)C)cc4)cc2)N3)C1` (stereo unspecified) the Potency was inconclusive: 22.4 µM [activator, single point].
In the case of `CCOc1ccc(C(=O)NCCn2cc(SCC(=O)Nc3ccc4c(c3)OCCO4)c3ccccc32)cc1`, the Potency is reported as inconclusive: 3.98 µM [activator, single point].
For `Cc1cccnc1NC(=O)Nc1cccc(C(F)(F)F)c1`, the “GFP activation” value was inactive: -1.08%.
With `CCc1[nH]nc2c1C(c1ccncc1)C(C#N)=C(N)O2` (stereo unspecified) the Potency was inconclusive: 6.31 µM [activator, single point].
For `Nc1c(C(=O)NCc2ccc3c(c2)OCO3)nnn1Cc1ccc(Br)cc1`, the Potency was inconclusive: 20 µM [activator, single point].
With `O=C(Nc1sc2c(c1C(=O)NCc1ccco1)CCCC2)c1cc(=O)c2ccccc2o1` the Potency was inconclusive: 31.6 µM [activator, single point].
With `CCN(CC)c1ccc(/C=N/NC(=O)c2ccoc2C)c(O)c1` the Potency was inconclusive: 12.6 µM [activator, partial curve].
In the case of `Cc1ccc(/C=N/n2c(-c3ccc(Cl)cc3)n[nH]c2=S)o1`, the “GFP activation” value is reported as inactive: 0%.
For `Cc1nn2c(NCCN(C)C)c3c(nc2c1-c1ccccc1)CCC3`, the Potency was inconclusive: 31.6 µM [activator, single point].
For `Cn1c(=O)c2c(nc(NCc3ccco3)n2Cc2ccc(Cl)cc2Cl)n(C)c1=O`, the Potency was inconclusive: 35.5 µM [activator, single point].
In the case of `Cn1c(=O)c2c(nc(N3CCCCCC3)n2Cc2cccc3ccccc23)n(C)c1=O`, the “GFP activation” value is reported as inactive: -1.81%.
In the case of `CCN1/C(=C/C=C/c2oc3ccc(-c4ccccc4)cc3[n+]2CC)Oc2ccc(-c3ccccc3)cc21`, the “GFP activation” value is reported as inactive: 82.7%.
With `CCOC(=O)c1c(-c2ccc(C)cc2)csc1NC1=NS(=O)(=O)c2ccccc21` the “GFP activation” value was inactive: 1.06%.
For `CC1CCC(C(=O)NC(C(=O)NCc2cccnc2)C(C)C)CC1` (stereo unspecified), the Potency was inconclusive: 3.16 µM [activator, single point].
For `Cc1ccc(NC(=O)CC(C)N2CCCC2)cc1` (stereo unspecified), the Potency was inconclusive: 12.6 µM [activator, single point].
With `CC(C)Oc1ccc(Cn2c(-c3ccco3)n[nH]c2=S)cc1` the Potency was inconclusive: 31.6 µM [activator, single point].
In the case of `COc1cccc(NC(=O)c2ccc(-c3ccc([N+](=O)[O-])cc3)o2)c1`, the Potency is reported as inconclusive: 17.8 µM [activator, single point].
For `Cc1c(CNC2CCCCCC2)c(C(=O)O)c(C)n1Cc1cccc(Cl)c1`, the Potency was inconclusive: 35.5 µM [activator, partial curve, poor fit].
With `Cc1c(Br)c(O)c(Br)c2sc(=O)oc12` the Potency was inconclusive: 31.6 µM [activator, single point].
In the case of `CN(C)/C=C/C(=O)c1ccc(Cl)c([N+](=O)[O-])c1`, the Potency is reported as inconclusive: 22.4 µM [activator, single point].
With `S=C(Nc1ccc(Cl)cc1Cl)Nn1cnnc1` the “GFP activation” value was inactive: 0%.
With `Cc1ccc(/C=C/C(=O)Nc2ccc3nc(N4CCC(C)CC4)cc(C)c3c2)cc1` the Potency was inconclusive: 35.5 µM [activator, single point].
For `CCOC(=O)c1c(-c2ccc(C)cc2)csc1NC(=O)CCN1CCOCC1`, the “GFP activation” value was inactive: 0.971%.
With `CC(=O)C(Cl)C(=O)Nc1ccccc1` (stereo unspecified) the Potency was inconclusive: 35.5 µM [activator, single point].
With `CN(CCOc1ccccc1)CC(=O)Nc1ccc(Cl)cc1[N+](=O)[O-]` the “GFP activation” value was inactive: -9.52%.
With `O=C(NCC1OCCc2ccccc21)c1ccc(NC(=O)c2ccccc2Cl)cc1` (stereo unspecified) the “GFP activation” value was inactive: 0%.
For `CCc1ccc(NC(=O)CSc2nnc(CC)c(CC)n2)cc1`, the Potency was inconclusive: 3.16 µM [activator, single point].
For `Cc1c(Cc2ccccc2)sc(/N=C/c2ccc3ccccc3c2)c1C(N)=O`, the “GFP activation” value was inactive: 8.82%.
In the case of `Cc1ccc(NC(=S)NNC(=O)c2nn(C)cc2Cl)cc1`, the “GFP activation” value is reported as inactive: -1.57%.
For `CCc1ccc(-c2nc(CS(=O)CC(=O)O)c(C)o2)cc1` (stereo unspecified), the Potency was inconclusive: 35.5 µM [activator, single point].
In the case of `Cc1ccccc1NC(=O)CSc1nc2c(oc3ccccc32)c(=O)n1Cc1ccco1`, the Potency is reported as inconclusive: 22.4 µM [activator, single point].
With `c1cc2ccc3ccc(-n4cnnn4)c4ccc(c1)c2c34` the Potency was inconclusive: 35.5 µM [activator, single point].
With `CC1=CC(C)(C)Nc2ccc(OC(=O)C(C)N3C(=O)c4ccccc4C3=O)cc21` (stereo unspecified) the Potency was inconclusive: 5.62 µM [activator, single point].
For `O=C(COc1ccccc1[N+](=O)[O-])Nc1ccc(NC(=O)c2cc3ccccc3o2)cc1`, the “GFP activation” value was inactive: 0%.
For `CN1CCN(C2=CC3=CC(=C(C#N)C#N)CCC3CC2)CC1` (stereo unspecified), the Potency was inconclusive: 6.31 µM [activator, partial curve, poor fit].
For `C=CCn1c(O)c(C2=c3ccccc3=NC2=O)sc1=Nc1ccc(O)cc1`, the Potency was inconclusive: 35.5 µM [activator, single point].
For `CCCCn1cc2c(c1-c1ccc(Br)cc1)c(=O)n(C)c(=O)n2C`, the Potency was inconclusive: 7.08 µM [activator, full curve].
With `O=C1ON=C(c2ccc(Cl)cc2)/C1=C/c1ccc(O)cc1` the “GFP activation” value was inactive: 5.36%.
With `CC(C)C(NS(=O)(=O)c1cccc2nsnc12)C(=O)Nc1nc2ccc(Cl)cc2s1` (stereo unspecified) the “GFP activation” value was inactive: -0.971%.
For `COc1ccc(N/N=C(/N=Nc2nc(C)cc(=O)[nH]2)c2ccccc2)cc1`, the Potency was inconclusive: 31.6 µM [activator, single point].
In the case of `CCn1c(SCc2ccc(Cl)cc2)nc2nc3c(cc2c1=O)CCCC3`, the Potency is reported as inconclusive: 3.55 µM [activator, single point].
In the case of `CCC(C)OC(=O)/C(C#N)=C/c1ccc(-c2ccc(Br)cc2)o1` (stereo unspecified), the Potency is reported as inconclusive: 31.6 µM [activator, single point].
For `Cc1ccsc1CN(Cc1ccco1)c1cnc(S(C)(=O)=O)nc1C(=O)Nc1ccc(Cl)cc1`, the “GFP activation” value was inactive: -0.78%.
With `Nc1c(S(=O)(=O)c2cccc(Cl)c2)c2nc3ccccc3nc2n1/N=C/c1ccc(O)c(O)c1` the Potency was inconclusive: 22.4 µM [activator, single point].
In the case of `O=C(N=c1ccn(-c2nc3ccccc3nc2NS(=O)(=O)c2ccccc2)cc1)c1cccs1`, the Potency is reported as inconclusive: 31.6 µM [activator, single point].
In the case of `CCn1c(=O)c([N+](=O)[O-])c(Cl)c2ccccc21`, the Potency is reported as inconclusive: 2.24 µM [activator, partial curve].
With `O=C(Cc1ccccc1)N/N=C/c1ccc(-c2ccc([N+](=O)[O-])cc2)o1` the Potency was inconclusive: 31.6 µM [activator, single point].
With `CC(=O)n1cc([C@@H]2C=C(C(=O)Nc3ccccc3)O[C@H](OCc3ccc(CO)cc3)C2)c2ccccc21` the Potency was inconclusive: 35.5 µM [activator, single point].
In the case of `Cc1ccc(NC(=O)N2CC=C(c3c[nH]c4ccccc34)CC2)cc1Cl`, the Potency is reported as inconclusive: 28.2 µM [activator, single point].
In the case of `COC(=O)c1ccc(CSc2nnc(SCc3ccc(C(=O)OC)o3)s2)o1`, the Potency is reported as inconclusive: 31.6 µM [activator, single point].
In the case of `COC(=O)C(C#N)c1nc2ccccc2nc1N1CCN(Cc2ccc3c(c2)OCO3)CC1` (stereo unspecified), the Potency is reported as inconclusive: 15.8 µM [activator, partial curve].
With `N#Cc1cccc(-n2nnnc2-c2ccccn2)c1` the Potency was inconclusive: 15.8 µM [activator, single point].
In the case of `Cc1cccc(C#N)c1NC1=CC(=O)CC(C)(C)C1`, the Potency is reported as inconclusive: 10 µM [activator, partial curve].
With `COc1ccc(S(=O)(=O)N(CC(=O)Nc2ccc(Br)cc2)Cc2ccccc2)cc1` the “GFP activation” value was inactive: 3.8%.
